The data scatter; read single values as rough.
B1: Ydj1; a variant is named by its letters at X, in order (parent)
chain: MVKETKFYDILGVPVTATDVEIKKAYRKCALKYHPDKNPSEEAAEKFKEASAAYEILSDPEKRDIYDQFGEDGLSGAGGAGGFPGGGFGFGDDIFSQFFGAGGAQRPRGPQRGKDIKHEISASLEELYKGRTAKLALNKQILCKECEGRGGKKGAVKKCTSCNGQGIKFVTRQMGPMIQRFQTECDVCHGTGDIIDPKDRCKSCNGKKVENERKILEVHVEPGMKDGQRIVFKGEADQAPDVIPGDVVFIVSERPHKSFKRDGDDLVYEAEIDLLTAIAGGEFALEHVSGDWLKVGIVPGEVIAPGMRKVIEGKGMPIPKYGGYGNLIIKFTIKFPENHFTSEENLKKLEEILPPRIVPAIPKKATVDECVLADFDPAKYNRTRASRGGANYDSDEEEQGGEGVQCXXX

Variants of: B1
Experiment: enrichment factor, frequency at 37 °C / frequency at 25 °C (thermotolerance selection) (ratio); higher = more growth at 37 °C, higher likelihood of farnesylation
Conditions: with Saccharomyces cerevisiae ydj1Δ (yWS304); selective temperature 37 °C; reference temperature 25 °C

Row | Variant | enrichment factor
1 | ETH | 1.4
2 | FTH | 1.92
3 | GTH | 1.74
4 | HTH | 2.75
5 | ITH | 1.4
6 | ATH | 1.51
7 | KTH | 1.89
8 | LTH | 1.41
9 | MTH | 1.88
10 | NTH | 1.22
11 | PTH | 1.66
12 | QTH | 1.83
13 | RTH | 2.28
14 | STH | 2.52
15 | TTH | 2.07
16 | VTH | 2.12
17 | CTH | 1.62
18 | WTH | 1.49
19 | YTH | 5.6
20 | DTI | 0.606
21 | ETI | 1.35
22 | FTI | 3.66
23 | GTI | 1.69
24 | HTI | 2.7

Row | Variant | enrichment factor
25 | ITI | 1.87
26 | ATI | 1.82
27 | KTI | 1.57
28 | LTI | 1.61
29 | MTI | 2.75
30 | NTI | 1.75
31 | PTI | 1.72
32 | QTI | 2.38
33 | RTI | 1.69
34 | STI | 1.76
35 | TTI | 1.98
36 | VTI | 1.97
37 | CTI | 0.421
38 | WTI | 2.03
39 | YTI | 2.52
40 | DTK | 0.175
41 | ETK | 0.355
42 | FTK | 0.253
43 | GTK | 0.152
44 | HTK | 0.158
45 | ITK | 1.37
46 | ATK | 1.22
47 | KTK | 0.13
48 | LTK | 0.64

Row | Variant | enrichment factor
49 | MTK | 0.178
50 | NTK | 0.111
51 | PTK | 0.686
52 | QTK | 0.481
53 | RTK | 0.282
54 | STK | 0.167
55 | TTK | 0.703
56 | VTK | 1.52
57 | CTK | 1.23
58 | WTK | 1.32
59 | YTK | 0.172
60 | DTL | 0.35
61 | ETL | 2.2
62 | FTL | 2.21
63 | GTL | 1.37
64 | HTL | 1.86
65 | ITL | 1.21
66 | ATL | 2.12
67 | KTL | 1.96
68 | LTL | 1.22
69 | MTL | 1.95
70 | NTL | 2.23
71 | PTL | 1.46
72 | QTL | 2.87

Row | Variant | enrichment factor
73 | RTL | 1.87
74 | STL | 1.83
75 | TTL | 1.98
76 | VTL | 1.9
77 | CTL | 1.41
78 | WTL | 1.52
79 | YTL | 2.27
80 | DTM | 1.74
81 | ETM | 2.05
82 | FTM | 2.9
83 | GTM | 1.4
84 | HTM | 2.86
85 | ITM | 1.28
86 | ATM | 1.49
87 | KTM | 1.79
88 | LTM | 1.92
89 | MTM | 3.67
90 | NTM | 1.9
91 | PTM | 1.34
92 | QTM | 2.14
93 | RTM | 2.13
94 | STM | 1.79
95 | TTM | 2.26
96 | VTM | 2.08

Row | Variant | enrichment factor
97 | CTM | 1.37
98 | WTM | 1.16
99 | YTM | 1.42
100 | DTN | 0.934
101 | ETN | 1.15
102 | FTN | 1.87
103 | GTN | 1.65
104 | HTN | 2
105 | ITN | 1.48
106 | ATN | 1.75
107 | KTN | 1.98
108 | LTN | 1.28
109 | MTN | 1.59
110 | NTN | 1.43
111 | PTN | 1.63
112 | QTN | 1.83
113 | RTN | 1.97
114 | STN | 1.95
115 | TTN | 1.44
116 | VTN | 1.42
117 | CTN | 1.52
118 | WTN | 2.52
119 | YTN | 3.85
120 | DTP | 0.184

Row | Variant | enrichment factor
121 | ETP | 0.168
122 | FTP | 1.38
123 | GTP | 0.162
124 | HTP | 0.358
125 | ITP | 0.125
126 | ATP | 0.225
127 | KTP | 0.204
128 | LTP | 0.139
129 | MTP | 0.147
130 | NTP | 0.159
131 | PTP | 0.0911
132 | QTP | 0.141
133 | RTP | 0.0987
134 | STP | 0.104
135 | TTP | 0.0943
136 | VTP | 0.0901
137 | CTP | 0.814
138 | WTP | 0.828
139 | YTP | 1.21
140 | DTQ | 1.53
141 | ETQ | 1.59
142 | FTQ | 2.17
143 | GTQ | 1.29
144 | HTQ | 1.86

Row | Variant | enrichment factor
145 | ITQ | 1.22
146 | ATQ | 1.42
147 | KTQ | 1.98
148 | LTQ | 1.49
149 | MTQ | 1.65
150 | NTQ | 1.44
151 | PTQ | 1.33
152 | QTQ | 2.1
153 | RTQ | 1.53
154 | STQ | 1.76
155 | TTQ | 1.54
156 | VTQ | 1.55
157 | CTQ | 1.42
158 | WTQ | 1.52
159 | YTQ | 2.96
160 | DTR | 0.143
161 | ETR | 0.224
162 | FTR | 0.241
163 | GTR | 0.184
164 | HTR | 0.157
165 | ITR | 0.198
166 | ATR | 0.206
167 | KTR | 0.239
168 | LTR | 0.118

Row | Variant | enrichment factor
169 | MTR | 0.133
170 | NTR | 0.151
171 | PTR | 0.0891
172 | QTR | 0.202
173 | RTR | 0.146
174 | STR | 0.0965
175 | TTR | 0.132
176 | VTR | 0.479
177 | CTR | 0.198
178 | WTR | 1.51
179 | YTR | 0.176
180 | DTS | 1.57
181 | ETS | 1.73
182 | FTS | 2.47
183 | GTS | 1.44
184 | HTS | 1.99
185 | ITS | 1.52
186 | ATS | 1.23
187 | KTS | 1.63
188 | LTS | 1.55
189 | MTS | 1.75
190 | NTS | 1.18
191 | PTS | 1.71
192 | QTS | 1.68

Row | Variant | enrichment factor
193 | RTS | 2.7
194 | STS | 2.57
195 | TTS | 2.38
196 | VTS | 2.26
197 | CTS | 1.29
198 | WTS | 4.16
199 | YTS | 2.7
200 | DTT | 0.788
201 | ETT | 1.14
202 | FTT | 2.68
203 | GTT | 1.67
204 | HTT | 1.84
205 | ITT | 1.37
206 | ATT | 1.54
207 | KTT | 1.56
208 | LTT | 1.25
209 | MTT | 1.58
210 | NTT | 1.61
211 | PTT | 1.34
212 | QTT | 1.85
213 | RTT | 1.62
214 | STT | 1.89
215 | TTT | 2.1
216 | VTT | 1.95

Row | Variant | enrichment factor
217 | CTT | 1.84
218 | WTT | 2
219 | YTT | 4.67
220 | DTV | 1.06
221 | ETV | 1.51
222 | FTV | 1.3
223 | GTV | 1.49
224 | HTV | 2.07
225 | ITV | 1.65
226 | ATV | 2.21
227 | KTV | 1.57
228 | LTV | 1.94
229 | MTV | 3.91
230 | NTV | 1.75
231 | PTV | 1.41
232 | QTV | 2.48
233 | RTV | 1.8
234 | STV | 1.79
235 | TTV | 2.22
236 | VTV | 2.51
237 | CTV | 0.993
238 | WTV | 1.83
239 | YTV | 4.21
240 | DTW | 0.161

Row | Variant | enrichment factor
241 | ETW | 1.35
242 | FTW | 1.26
243 | GTW | 0.814
244 | HTW | 1.44
245 | ITW | 0.669
246 | ATW | 1.04
247 | KTW | 1.78
248 | LTW | 0.638
249 | MTW | 1.29
250 | NTW | 1.5
251 | PTW | 1.64
252 | QTW | 1.58
253 | RTW | 1.29
254 | STW | 1.56
255 | TTW | 1.57
256 | VTW | 1.9
257 | CTW | 0.943
258 | WTW | 1.78
259 | YTW | 1.12
260 | DTY | 0.888
261 | ETY | 1.16
262 | FTY | 2.27
263 | GTY | 2.19
264 | HTY | 2.27

Row | Variant | enrichment factor
265 | ITY | 0.901
266 | ATY | 1.59
267 | KTY | 2.02
268 | LTY | 1.11
269 | MTY | 1.4
270 | NTY | 2.06
271 | PTY | 1.8
272 | QTY | 2.03
273 | RTY | 1.68
274 | STY | 2.08
275 | TTY | 1.88
276 | VTY | 2.71
277 | CTY | 1.21
278 | WTY | 1.48
279 | YTY | 2.37
280 | DVA | 1.22
281 | EVA | 1.66
282 | FVA | 2.32
283 | GVA | 1.1
284 | HVA | 1.88
285 | IVA | 0.891
286 | AVA | 0.642
287 | KVA | 2.35
288 | LVA | 1.79

Row | Variant | enrichment factor
289 | MVA | 1.23
290 | NVA | 1.95
291 | PVA | 1.84
292 | QVA | 1.97
293 | RVA | 0.91
294 | SVA | 0.873
295 | TVA | 0.807
296 | VVA | 0.855
297 | CVA | 0.529
298 | WVA | 0.965
299 | YVA | 1.16
300 | DVC | 0.883
301 | EVC | 2.19
302 | FVC | 1.16
303 | GVC | 0.769
304 | HVC | 1.16
305 | IVC | 1.11
306 | AVC | 1.16
307 | KVC | 0.703
308 | LVC | 1.22
309 | MVC | 0.849
310 | NVC | 1.51
311 | PVC | 1.02
312 | QVC | 1.91

Row | Variant | enrichment factor
313 | RVC | 0.824
314 | SVC | 0.739
315 | TVC | 0.666
316 | VVC | 0.655
317 | CVC | 1.02
318 | WVC | 0.717
319 | YVC | 2.03
320 | DVD | 1.59
321 | EVD | 1.77
322 | FVD | 2.18
323 | GVD | 1.31
324 | HVD | 2.27
325 | IVD | 1.68
326 | AVD | 1.42
327 | KVD | 1.27
328 | LVD | 1.78
329 | MVD | 1.98
330 | NVD | 2.72
331 | PVD | 1.48
332 | QVD | 1.53
333 | RVD | 1.28
334 | SVD | 1.87

From the supplement of paper PMC10320760
